# Data: paper PMC10256215
# Chains of the proteins cited; added tags and fusions are not shown.
# UniProt P13164: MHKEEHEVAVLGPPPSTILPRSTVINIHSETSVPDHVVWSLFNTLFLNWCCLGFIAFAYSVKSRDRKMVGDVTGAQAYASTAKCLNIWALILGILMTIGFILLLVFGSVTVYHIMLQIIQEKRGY
# UniProt Q9H3P7: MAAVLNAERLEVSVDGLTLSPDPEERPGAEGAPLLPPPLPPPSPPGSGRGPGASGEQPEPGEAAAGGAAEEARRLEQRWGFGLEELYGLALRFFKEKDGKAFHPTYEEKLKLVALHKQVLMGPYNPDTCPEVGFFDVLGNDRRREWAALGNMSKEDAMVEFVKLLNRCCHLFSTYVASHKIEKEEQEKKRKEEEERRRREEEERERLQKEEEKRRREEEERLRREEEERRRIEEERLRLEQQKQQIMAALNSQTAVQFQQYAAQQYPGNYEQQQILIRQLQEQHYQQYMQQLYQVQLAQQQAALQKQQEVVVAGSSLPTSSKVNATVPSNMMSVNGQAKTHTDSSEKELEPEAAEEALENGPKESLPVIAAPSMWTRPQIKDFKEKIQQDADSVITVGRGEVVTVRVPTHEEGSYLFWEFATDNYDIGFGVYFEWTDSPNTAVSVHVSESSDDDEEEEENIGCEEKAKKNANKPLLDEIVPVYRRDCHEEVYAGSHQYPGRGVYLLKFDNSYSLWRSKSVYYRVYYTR
# UniProt O95292: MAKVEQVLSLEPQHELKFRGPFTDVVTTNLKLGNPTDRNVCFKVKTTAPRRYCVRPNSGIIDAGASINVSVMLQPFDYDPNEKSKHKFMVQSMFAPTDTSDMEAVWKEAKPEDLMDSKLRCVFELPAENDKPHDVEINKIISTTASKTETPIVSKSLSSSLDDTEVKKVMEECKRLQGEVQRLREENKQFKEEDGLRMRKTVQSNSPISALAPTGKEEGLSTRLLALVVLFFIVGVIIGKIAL
# UniProt Q9UBF8: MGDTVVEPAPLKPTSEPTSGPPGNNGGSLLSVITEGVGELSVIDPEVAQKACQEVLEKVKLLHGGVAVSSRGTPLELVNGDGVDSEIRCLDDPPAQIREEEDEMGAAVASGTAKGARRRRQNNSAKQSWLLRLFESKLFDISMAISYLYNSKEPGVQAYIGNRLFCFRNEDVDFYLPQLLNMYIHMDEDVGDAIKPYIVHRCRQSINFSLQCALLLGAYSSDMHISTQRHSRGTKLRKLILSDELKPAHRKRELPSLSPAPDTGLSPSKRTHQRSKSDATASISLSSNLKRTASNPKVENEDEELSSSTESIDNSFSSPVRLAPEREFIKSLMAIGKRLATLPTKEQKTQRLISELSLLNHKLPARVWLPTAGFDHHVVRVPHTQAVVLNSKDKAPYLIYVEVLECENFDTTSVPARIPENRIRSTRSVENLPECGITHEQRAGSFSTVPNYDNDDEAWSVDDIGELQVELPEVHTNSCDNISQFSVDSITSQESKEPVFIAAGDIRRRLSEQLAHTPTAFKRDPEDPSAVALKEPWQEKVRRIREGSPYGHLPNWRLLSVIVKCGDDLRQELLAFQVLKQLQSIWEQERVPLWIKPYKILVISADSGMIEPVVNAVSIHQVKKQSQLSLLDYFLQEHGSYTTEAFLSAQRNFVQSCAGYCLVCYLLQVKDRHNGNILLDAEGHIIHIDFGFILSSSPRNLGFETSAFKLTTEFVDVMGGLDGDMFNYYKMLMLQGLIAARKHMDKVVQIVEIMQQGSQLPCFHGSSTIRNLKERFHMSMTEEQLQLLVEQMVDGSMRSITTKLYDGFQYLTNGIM
# UniProt O43493: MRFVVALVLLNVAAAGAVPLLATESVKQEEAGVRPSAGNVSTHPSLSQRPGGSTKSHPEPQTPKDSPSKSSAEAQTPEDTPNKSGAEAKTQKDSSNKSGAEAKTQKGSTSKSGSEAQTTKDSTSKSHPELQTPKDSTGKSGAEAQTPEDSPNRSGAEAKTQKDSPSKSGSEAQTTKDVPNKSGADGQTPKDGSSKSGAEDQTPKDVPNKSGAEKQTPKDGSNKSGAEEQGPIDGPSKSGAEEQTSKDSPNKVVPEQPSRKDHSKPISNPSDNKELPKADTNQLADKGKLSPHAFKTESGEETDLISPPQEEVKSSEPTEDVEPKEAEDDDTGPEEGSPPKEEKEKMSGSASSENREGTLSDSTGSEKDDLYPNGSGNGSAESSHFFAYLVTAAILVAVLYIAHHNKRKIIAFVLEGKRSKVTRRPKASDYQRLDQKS
# UniProt Q01629: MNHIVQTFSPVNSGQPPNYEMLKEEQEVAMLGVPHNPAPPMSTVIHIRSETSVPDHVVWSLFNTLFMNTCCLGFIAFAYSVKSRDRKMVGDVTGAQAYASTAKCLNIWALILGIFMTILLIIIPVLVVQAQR
# UniProt Q01628: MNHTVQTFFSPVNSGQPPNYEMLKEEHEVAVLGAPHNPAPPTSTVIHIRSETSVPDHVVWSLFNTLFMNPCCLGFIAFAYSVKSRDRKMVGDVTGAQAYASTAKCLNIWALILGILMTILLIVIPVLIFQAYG
# These are yes or no findings as the source states them, for the method shown. For some of these results: In cells and extracts the contact can be indirect. Some entries that bind do so weakly or less than the wild type. For some of these results: Tags and fused reporters may be left off the sequences shown.
# Key:
# HA-tagged IFITM1 (human) = HA-tagged IFITM1 (human) (UniProt P13164); test: co-IP; 293T cells co-transfected for 24 h with FLAG- and HA-tagged constructs; IP with anti-FLAG, anti-HA or control IgG; immunoblot with anti-FLAG and anti-HA
# HA-tagged ACBD3 = HA-tagged ACBD3 (UniProt Q9H3P7); test: as above
# HA-tagged VAPA = target: T1, HA-tagged VAPA (UniProt Q9P0L0); test: as above
# T1 sequence: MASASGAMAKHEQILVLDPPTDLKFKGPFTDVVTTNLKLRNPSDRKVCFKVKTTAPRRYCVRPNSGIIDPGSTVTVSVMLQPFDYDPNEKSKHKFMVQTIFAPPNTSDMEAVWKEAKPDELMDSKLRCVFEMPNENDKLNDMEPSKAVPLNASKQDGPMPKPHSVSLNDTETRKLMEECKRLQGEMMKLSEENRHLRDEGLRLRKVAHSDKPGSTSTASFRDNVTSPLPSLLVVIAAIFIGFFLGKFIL
# HA-tagged VAPB = HA-tagged VAPB (UniProt O95292); test: as above
# HA-tagged CERT = target: T2, HA-tagged CERT (UniProt Q9Y5P4); test: as above
# T2 sequence: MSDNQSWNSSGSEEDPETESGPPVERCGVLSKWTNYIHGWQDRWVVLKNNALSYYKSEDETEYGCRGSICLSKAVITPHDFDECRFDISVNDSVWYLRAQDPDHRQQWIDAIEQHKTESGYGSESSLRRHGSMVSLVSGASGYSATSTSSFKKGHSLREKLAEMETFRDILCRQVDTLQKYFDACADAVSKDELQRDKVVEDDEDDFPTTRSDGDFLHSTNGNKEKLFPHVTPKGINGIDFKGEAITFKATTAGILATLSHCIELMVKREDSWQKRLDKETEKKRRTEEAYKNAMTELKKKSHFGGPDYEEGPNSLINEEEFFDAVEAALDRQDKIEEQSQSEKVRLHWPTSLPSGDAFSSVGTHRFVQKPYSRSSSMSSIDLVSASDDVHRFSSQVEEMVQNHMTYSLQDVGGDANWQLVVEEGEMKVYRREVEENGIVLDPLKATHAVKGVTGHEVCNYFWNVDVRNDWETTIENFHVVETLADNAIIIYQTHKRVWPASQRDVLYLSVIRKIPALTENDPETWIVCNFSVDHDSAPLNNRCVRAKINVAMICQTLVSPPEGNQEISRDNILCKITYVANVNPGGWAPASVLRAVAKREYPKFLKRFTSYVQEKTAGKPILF
# HA-tagged PI4KB = HA-tagged PI4KB (UniProt Q9UBF8); test: as above
# [1] = target: HA-tagged AiV 2C (Aichi virus (AiV)) (UniProt O91464); test: as above
# HA-tagged OSBP = target: T3, HA-tagged OSBP (UniProt P22059); test: as above
# T3 sequence: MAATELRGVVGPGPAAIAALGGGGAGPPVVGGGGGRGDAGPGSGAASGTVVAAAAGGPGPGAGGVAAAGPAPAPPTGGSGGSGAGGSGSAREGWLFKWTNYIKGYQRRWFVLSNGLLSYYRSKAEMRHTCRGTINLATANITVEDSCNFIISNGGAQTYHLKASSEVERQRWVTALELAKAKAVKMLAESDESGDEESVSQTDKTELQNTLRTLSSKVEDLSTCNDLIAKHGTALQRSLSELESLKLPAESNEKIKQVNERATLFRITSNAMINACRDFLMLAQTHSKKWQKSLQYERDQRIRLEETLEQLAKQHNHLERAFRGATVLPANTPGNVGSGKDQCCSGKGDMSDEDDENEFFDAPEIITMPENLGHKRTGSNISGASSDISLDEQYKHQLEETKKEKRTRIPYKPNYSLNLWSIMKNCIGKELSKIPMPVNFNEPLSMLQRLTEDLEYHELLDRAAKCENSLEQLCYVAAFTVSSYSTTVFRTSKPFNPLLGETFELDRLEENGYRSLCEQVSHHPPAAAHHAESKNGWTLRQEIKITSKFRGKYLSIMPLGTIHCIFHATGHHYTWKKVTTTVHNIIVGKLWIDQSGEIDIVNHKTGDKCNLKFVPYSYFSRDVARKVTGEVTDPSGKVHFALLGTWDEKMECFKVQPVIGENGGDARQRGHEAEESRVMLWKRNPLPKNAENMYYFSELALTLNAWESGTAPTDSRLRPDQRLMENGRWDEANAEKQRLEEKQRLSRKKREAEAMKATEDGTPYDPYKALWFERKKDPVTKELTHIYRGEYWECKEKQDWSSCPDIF
# [2] = target: T4, HA-tagged AiV 3A (Aichi virus (AiV)) (UniProt O91464); test: as above
# T4 sequence: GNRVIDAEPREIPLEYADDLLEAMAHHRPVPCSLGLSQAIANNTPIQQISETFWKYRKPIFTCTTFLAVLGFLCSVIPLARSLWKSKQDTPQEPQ
# HA-tagged SAC1 = target: T5, HA-tagged SAC1 (UniProt Q9NTJ5); test: as above
# T5 sequence: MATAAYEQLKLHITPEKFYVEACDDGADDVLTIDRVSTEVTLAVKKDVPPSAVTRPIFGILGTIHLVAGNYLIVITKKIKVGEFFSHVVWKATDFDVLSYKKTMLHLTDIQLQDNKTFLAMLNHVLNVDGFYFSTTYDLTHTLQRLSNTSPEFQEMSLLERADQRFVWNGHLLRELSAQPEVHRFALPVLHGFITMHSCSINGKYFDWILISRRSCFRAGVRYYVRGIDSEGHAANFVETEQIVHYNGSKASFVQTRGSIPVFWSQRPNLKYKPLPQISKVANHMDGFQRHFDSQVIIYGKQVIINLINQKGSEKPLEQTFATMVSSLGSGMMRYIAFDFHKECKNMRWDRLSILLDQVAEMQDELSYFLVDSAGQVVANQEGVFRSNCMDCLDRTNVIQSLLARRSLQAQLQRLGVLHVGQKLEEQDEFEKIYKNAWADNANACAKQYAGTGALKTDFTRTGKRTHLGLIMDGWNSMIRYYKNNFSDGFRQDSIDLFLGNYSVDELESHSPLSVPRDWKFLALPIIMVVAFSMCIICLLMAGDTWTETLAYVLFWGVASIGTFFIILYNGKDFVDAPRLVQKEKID
# [3] = target: HA-tagged AiV 2B (Aichi virus (AiV)) (UniProt O91464); test: as above
# [4] = target: AiV 2B (mammalian two-hybrid fusion) (Aichi virus (AiV)) (UniProt O91464); test: two-hybrid; mammalian two-hybrid (Checkmate, Promega) in Vero cells; pACT and pBIND fusions in both orientations with the pG5luc reporter; firefly/Renilla luciferase at 48 h as fold of the control with empty pACT or pBIND
# [5] = target: TGN46 (mammalian two-hybrid fusion) (UniProt O43493); test: as above
# [6] = target: T6, AiV 3A (mammalian two-hybrid fusion) (Aichi virus (AiV)) (UniProt O91464); test: as above
# T6 sequence: T4 sequence
# [7] = target: AiV 2C (mammalian two-hybrid fusion) (Aichi virus (AiV)) (UniProt O91464); test: as above
# [8] = target: VAPB (mammalian two-hybrid fusion) (UniProt O95292); test: as above
# [9] = target: T7, VAPA (mammalian two-hybrid fusion) (UniProt Q9P0L0); test: as above
# T7 sequence: T1 sequence
# [10] = target: T8, SAC1 (mammalian two-hybrid fusion) (UniProt Q9NTJ5); test: as above
# T8 sequence: T5 sequence
# [11] = target: ACBD3 (mammalian two-hybrid fusion) (UniProt Q9H3P7); test: as above
# [12] = target: T9, OSBP (mammalian two-hybrid fusion) (UniProt P22059); test: as above
# T9 sequence: T3 sequence
# [13] = target: PI4KB (mammalian two-hybrid fusion) (UniProt Q9UBF8); test: as above
Substance,binding (HA-tagged ACBD3),binding (HA-tagged VAPA),binding (HA-tagged VAPB),binding (HA-tagged PI4KB),binding (HA-tagged OSBP),binding (HA-tagged SAC1),binding [8],binding [9],binding [10],other results
FLAG-tagged ACBD3 (from UniProt Q9H3P7 1-528),–,–,–,–,–,–,–,–,–,binding (HA-tagged IFITM1 (human)): binds
FLAG-tagged IFITM1 (from UniProt P13164 1-125),binds,binds,binds,binds,binds,binds,–,–,–,binding (HA-tagged CERT): no binding; binding [1]: binds; binding [2]: binds; binding [3]: binds
FLAG-tagged IFITM2 (from UniProt Q01629 1-132),binds,binds,binds,binds,binds,binds,–,–,–,–
FLAG-tagged IFITM3 (from UniProt Q01628 1-133),binds,binds,binds,binds,binds,binds,–,–,–,–
FLAG-tagged PI4KB (from UniProt Q9UBF8 1-816) (enzyme),–,–,–,–,–,–,–,–,–,binding (HA-tagged IFITM1 (human)): binds
IFITM1 (mammalian two-hybrid fusion) (from UniProt P13164 1-125),–,–,–,–,–,–,binds,binds,binds,binding [4]: binds; binding [5]: no binding; binding [6]: binds; binding [7]: binds
IFITM2 (mammalian two-hybrid fusion) (from UniProt Q01629 1-132),–,–,–,–,–,–,binds,binds,binds,binding [11]: binds; binding [12]: binds; binding [13]: binds
IFITM3 (mammalian two-hybrid fusion) (from UniProt Q01628 1-133),–,–,–,–,–,–,binds,binds,binds,binding [11]: binds; binding [12]: binds; binding [13]: binds
